Publication PMC7949147
Residue numbers refer to the chain shown, from its start. These are yes or no findings as the source states them, for the method shown. In cells and extracts the contact can be indirect. Some results given as binding are weak or reduced against the parent protein; the word gives no strength. Where a sequence is shown, tags or fusion partners need not be part of it. Each block holds one molecule with its values, some of them ahead of it.

By UniProt entry, the sequences of proteins in these tests, tags left out.
UniProt Q8VI36: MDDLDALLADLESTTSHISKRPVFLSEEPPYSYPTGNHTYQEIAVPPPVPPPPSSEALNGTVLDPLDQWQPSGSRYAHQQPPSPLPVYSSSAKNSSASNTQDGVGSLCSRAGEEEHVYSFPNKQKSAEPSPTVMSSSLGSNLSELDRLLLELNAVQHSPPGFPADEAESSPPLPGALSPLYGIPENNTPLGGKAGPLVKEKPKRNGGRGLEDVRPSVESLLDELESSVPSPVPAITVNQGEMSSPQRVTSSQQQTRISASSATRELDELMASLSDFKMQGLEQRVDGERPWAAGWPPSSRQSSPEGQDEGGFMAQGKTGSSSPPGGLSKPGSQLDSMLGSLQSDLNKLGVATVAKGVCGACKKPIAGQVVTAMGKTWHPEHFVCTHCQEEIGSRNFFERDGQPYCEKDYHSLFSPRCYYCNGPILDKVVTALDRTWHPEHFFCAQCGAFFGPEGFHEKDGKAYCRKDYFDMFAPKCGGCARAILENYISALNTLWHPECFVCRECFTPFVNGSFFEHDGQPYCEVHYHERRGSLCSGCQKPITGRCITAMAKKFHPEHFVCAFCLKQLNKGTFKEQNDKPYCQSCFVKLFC

Columns and labels:
Experiment in all cases: co-IP; anti-FLAG M2 resin, 12 h immunoprecipitation of FLAG-ILK from lysates of CD cells (starved overnight, plated 4 h on FN-coated dishes); lysis in 10 mM Tris-HCl, 50 mM NaCl, 10% glycerol, 1% Igepal C630, pH 7.6; 1.0 mg total protein; western blot
[1] = target: T1, FLAG-tagged ILK K220M mutant (UniProt O55222)
T1 sequence: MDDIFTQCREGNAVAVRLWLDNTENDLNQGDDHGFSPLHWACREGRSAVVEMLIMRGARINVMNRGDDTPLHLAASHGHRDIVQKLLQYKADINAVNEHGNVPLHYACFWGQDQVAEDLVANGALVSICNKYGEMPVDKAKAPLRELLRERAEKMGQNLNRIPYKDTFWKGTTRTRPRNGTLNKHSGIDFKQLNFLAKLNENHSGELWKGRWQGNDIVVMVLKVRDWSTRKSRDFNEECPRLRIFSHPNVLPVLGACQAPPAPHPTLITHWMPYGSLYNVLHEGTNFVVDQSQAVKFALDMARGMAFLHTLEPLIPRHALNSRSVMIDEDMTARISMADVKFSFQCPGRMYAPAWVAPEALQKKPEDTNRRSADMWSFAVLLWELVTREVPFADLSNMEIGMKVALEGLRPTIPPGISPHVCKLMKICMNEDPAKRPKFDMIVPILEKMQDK

[2] = target: T2, FLAG-tagged ILK V386G/T387G (paxillin-binding site, PBS) mutant (UniProt O55222)
T2 sequence: T1 sequence with M220K, V386G, T387G

[3] = target: T3, FLAG-tagged full-length integrin-linked kinase (ILK), wild type (UniProt O55222)
T3 sequence: T1 sequence with M220K

- binding [1]: no binding
- binding [2]: no binding
- binding [3]: binds
Molecule: paxillin (from UniProt Q8VI36 1-591)

- binding [1]: no binding
- binding [2]: no binding
- binding [3]: binds
B1: β-parvin (protein, UniProt Q9ES46 1-365)
chain: MSSAPPRSPTPRAPKMKKDESFLGKLGGTLARKKKTREVTDLQEEGKSAINSPMAPALVDIHPEDTQLEENEERTMIDPTSREDPKFKELVKVLLDWINDVLAEERIIVKQLEEDLYDGQVLQKLLEKLAHCKLNVAEVTQSEIGQKQKLQTVLEAVQDLLRPHGWPLRWNVDSIHGKNLVAILHLLVSLAMHFRAPIHLPEHVTVQVVVVRKREGLLHSSHISEELTTTTEIMMGRFERDAFDTLFDHAPDKLNLVKKSLITFVNKHLNKLNLEVTDLETQFADGVYLVLLLGLLEDYFVPLHNFYLTPDSFDQKVHNVAFAFELMLDGGLKKPKARPEDVVNLDLKSTLRVLYTLFTKYKDVE

- binding [1]: no binding
- binding [2]: no binding
- binding [3]: binds
B2: α-parvin (protein, UniProt Q9EPC1 1-372)
chain: MATSPQKSPLVPKSPTPKSPPSRKKDDSFLGKLGGTLARRKKAKEVSEFQEEGMNAINLPLSPISFELDPEDTLLEENEVRTMVDPNSRNDPKLQELMKVLIDWINDVLVGERIIVKDLAEDLYDGQVLQKLFEKLESEKLNVAEVTQSEIAQKQKLQTVLEKINETLKLPPRSIKWNVDSVHAKNLVAILHLLVALSQYFRAPIRLPDHVSIQVVVVQKREGILQSRQIQEEITGNTEALSGRHERDAFDTLFDHAPDKLNVVKKTLITFVNKHLNKLNLEVTELETQFADGVYLVLLMGLLEGYFVPLHSFFLTPDSFEQKVLNVSFAFELMQDGGLEKPKPRPEDIVNCDLKSTLRVLYNLFTKYRNVE
